Measured values as given in paper PMC12040169 (PLOS Biology, 2025).
The other results are listed elsewhere or left out.

The molecules below were run on T1, C. trachomatis L2/434/Bu expressing GFP (CTL2-GFP). Conditions: total inclusion area; 28.5 h, 10 µM; inhibitor.
T1 construct: L2/434/Bu GFP intracellular growth in HeLa cells
Design: species or system HeLa; C. trachomatis total inclusion area by high-content imaging, normalised to DMSO
In short: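 Host cell viability was gauged from Hoechst-stained nuclei counts, while chlamydial growth was taken from total inclusion area and inclusion number per well. Cells were fixed and imaged by high-content microscopy once bulk GFP and resorufin fluorescence had been measured.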
`C[C@H](Nc1nc(-c2cccc(C(N)=O)c2)cnc1N)c1ccccc1` [CBK063715] was tested, and the “% of control remaining” value was 118.541.
With `Cc1ccc(S(=O)(=O)N(CC(=O)Nc2cccnc2)c2cccc(Br)c2)cc1` [CBK264094] the “% of control remaining” value was 87.5843.
With `CC(C)(C)OC(=O)N1CCN(CCCOC2(C)SC(NC3CC4CCC3C4)=NC2=O)CC1` (centres unmarked) [CBK115612] the “% of control remaining” value was 99.0804.
`COc1ccc2c3c([nH]c2c1)C(C)N(CCC(=O)NN)CC3` (centres unmarked) [CBK261726] was tested, and the “% of control remaining” value was 99.3537.
For `CN1CCN(c2nc3c(N)ncn(CC(O)CO)c-3n2)CC1` (centres unmarked) [CBK262571], the “% of control remaining” value was 97.8904.
`COC(=O)c1cc(Cl)c(NC(=S)NC(=O)C(C)(C)C)cc1OC` [CBK020937] was tested, and the “% of control remaining” value was 101.727.
In the case of `CC(C)(CN)CN(Cc1c[nH]c(-c2ccccc2)n1)C(=O)Nc1ccc(C(C)(C)C)cc1` [CBK002462C], the “% of control remaining” value is reported as 30.223.
For `CC(C)NC(=O)Nc1ccccc1-c1ncn(C)n1` [CBK020922], the “% of control remaining” value was 80.9648.
In the case of `CCC(CC)c1cc([C@H]2CN3CC[C@H]2C[C@@H]3CO)nc(-c2ccncc2)n1` [CBK289118], the “% of control remaining” value is reported as 101.155.
For `O=C1CN(Cc2ccc3ccccc3n2)CCN1C1CCCC1` [CBK281961], the “% of control remaining” value was 87.4566.
In the case of `CCOC(=O)N1CCC(NS(=O)(=O)c2ccc(C)c([N+](=O)[O-])c2)CC1` [CBK045468], the “% of control remaining” value is reported as 77.4994.
With `O=C(NCc1cccc(C(F)(F)F)c1)c1cnoc1-c1ccc(Br)cc1` [CBK153718] the “% of control remaining” value was 119.082.
In the case of `O=C(NCc1ccc2c(c1)CCN2C(=O)c1ccncc1)c1cccnc1` [CBK288585], the “% of control remaining” value is reported as 89.8978.
`Cc1ccc2c(c1)OC(C)(C)CC2NC(=O)C1CCN(C)CC1` (centres unmarked) [CBK307626] was tested, and the “% of control remaining” value was 93.5899.
For `O=C(CC(NC1CCCCC1)C(=O)O)Nc1cccc(Cl)c1` (centres unmarked) [CBK266916], the “% of control remaining” value was 95.4145.
`O=C(CNS(=O)(=O)Cc1ccccc1[N+](=O)[O-])N1CCOCC1` [CBK042220] was tested, and the “% of control remaining” value was 90.3816.
For `C=CCN(c1ccccc1)S(=O)(=O)c1ccc(C(C)(C)CC)cc1` [CBK200036], the “% of control remaining” value was 93.1257.
For `COc1ccc(-c2nnc(SCC(=O)c3ccc(C)o3)o2)cc1` [CBK268334], the “% of control remaining” value was 98.7399.
For `C=CCn1c2ccccc2c2nnc(SCC(=O)Nc3c(C)n(C)n(-c4ccccc4)c3=O)nc21` [CBK263892], the “% of control remaining” value was 106.05.
`Cc1ccc2c(c1)cc(C)c1nn(CC(=O)NC(C)(C)C)c(=O)n12` [CBK283875] was tested, and the “% of control remaining” value was 95.1766.
With `COc1ccc(C(=O)Nc2nnc(C3=COCCO3)o2)cc1` [CBK287409] the “% of control remaining” value was 104.278.
With `CC1CCc2nc(NC(=O)Cn3cc(C(=O)Nc4ccc(F)cc4)ccc3=O)sc2C1` (centres unmarked) [CBK286053] the “% of control remaining” value was 107.286.
For `CC(=O)N1CCN(C[C@@H]2C=C(C)[C@H](Cc3nnc(C(C)(C)C)o3)C[C@H]2C(C)C)CC1` [CBK289221], the “% of control remaining” value was 102.275.
With `Cc1cc(NC(=O)CN2CCC(Cc3ccccc3)CC2)nc2c1c(=O)oc1ccccc12` [CBK291261] the “% of control remaining” value was 97.4774.
`Cc1cc(C)cc(CNC(=O)NCCc2cccs2)c1` [CBK043459] was tested, and the “% of control remaining” value was 125.038.
For `O=C(O)CCN1C(=O)/C(=C/c2ccc(C(=O)O)cc2)SC1=S` [CBK262785], the “% of control remaining” value was 111.02.
In the case of `O=C(c1ccccc1)c1cc(Cl)ccc1-n1ccnc1Br` [CBK016011], the “% of control remaining” value is reported as 79.5745.
`COCCN(CC1CC1)C(=O)c1cc(NC(C)=O)ccc1Cl` [CBK304352] was tested, and the “% of control remaining” value was 105.109.
For `c1cncc(Nc2cccc(-c3cnc4ccccc4c3)n2)c1` [CBK037638], the “% of control remaining” value was 89.1849.
In the case of `CN1CCN(CC(=O)Nc2cc(C(F)(F)F)ccc2Cl)C(C)(C)C1` [CBK306363], the “% of control remaining” value is reported as 86.3096.
`CC1(C)CC(N2CNC(=N)N(C#N)C2)CC(C)(C)N1` [CBK262008] was tested, and the “% of control remaining” value was 93.6449.
For `Cc1ccc(N(CC(=O)Nc2cc(Cl)ccc2C)S(C)(=O)=O)cc1` [CBK264030], the “% of control remaining” value was 93.0481.
In the case of `CC(C)(c1ccccc1)c1ccc(OCc2ccc(S(=O)(=O)N3CCOCC3)cc2)cc1` [CBK267407], the “% of control remaining” value is reported as 99.3544.
With `c1cc(-c2ccc(OC3CCNCC3)cc2)c2cccnc2c1` [CBK103528T] the “% of control remaining” value was 72.7806.
In the case of `CCN(CC)CCN1CCN(c2cc(-c3ccc(SC)cc3)ncn2)CC1` [CBK091203], the “% of control remaining” value is reported as 118.257.
In the case of `CC(C)(O)C#Cc1ccc(C(=O)NC(Cc2c[nH]c3ccccc23)C(=O)O)cc1` (centres unmarked) [CBK267703], the “% of control remaining” value is reported as 99.3748.
In the case of `O=C(c1cncnc1)N1CCCc2ccccc21` [CBK200259], the “% of control remaining” value is reported as 84.3117.
With `O=C(Nc1nnc(-c2ccco2)o1)c1ccc2c(c1)CCCC2` [CBK287425] the “% of control remaining” value was 99.8671.
In the case of `CN(C)S(=O)(=O)N1CCC(C(=O)O)(c2ccccc2)CC1` [CBK286681], the “% of control remaining” value is reported as 68.7464.
With `CCOC(=O)C1(Cc2cc(-c3ccc(F)cc3)no2)CCCNC1` (centres unmarked) [CBK284579] the “% of control remaining” value was 72.1822.
With `Cc1ccc(-c2nnc(N3CCN(S(=O)(=O)c4ccc(Cl)cc4)CC3)c3ccccc23)cc1` [CBK266759] the “% of control remaining” value was 96.9996.
For `CN(C)S(=O)(=O)c1ccc(Cl)c(C(=O)Nc2cccc(O)c2)c1` [CBK265723], the “% of control remaining” value was 98.5496.
`CN1CCN(C(c2ccc(O)cc2)c2nnnn2Cc2ccccc2)CC1` (centres unmarked) [CBK084719] was tested, and the “% of control remaining” value was 102.658.
In the case of `Clc1ccc(COc2nccnc2OCC2CCCO2)cc1Cl` (centres unmarked) [CBK161587], the “% of control remaining” value is reported as 100.514.
With `OCCOc1cccnc1OCC1CC1` [CBK001461] the “% of control remaining” value was 92.7125.
`O=C(/C=C\c1cccs1)NC(=S)Nc1ccc([N+](=O)[O-])cc1O` [CBK261231] was tested, and the “% of control remaining” value was 104.929.
For `COc1ccc(CO)cc1OCc1ccccc1` [CBK051334], the “% of control remaining” value was 127.82.
For `CCCn1c(SCC(=O)Nc2cc(C(C)(C)C)no2)n[nH]c1=O` [CBK295648], the “% of control remaining” value was 49.4662.
With `Cc1cc(-c2c(C)n(-c3ccccc3)[nH]c2=O)n2ncnc2n1` [CBK288441] the “% of control remaining” value was 85.311.
In the case of `Cc1nc(C(=O)NC2CC(=O)N(CCc3ccc(F)cc3)C2)cs1` (centres unmarked) [CBK307473], the “% of control remaining” value is reported as 66.4711.
`O=C(O)Cn1nc(-c2ccccc2)c2ccccc2c1=O` [CBK287249] was tested, and the “% of control remaining” value was 85.6639.
For `Cc1nc(N2CCCCC2)ncc1C(=O)NCCSc1nncn1C` [CBK306955], the “% of control remaining” value was 52.8564.
`Cc1ccc(C)c(S(=O)(=O)NCC(=O)Nc2nsc(-c3ccccc3)n2)c1` [CBK267304] was tested, and the “% of control remaining” value was 100.818.
With `O=C(NCCCO)c1cc2ccccc2[nH]1` [CBK267638] the “% of control remaining” value was 106.241.
For `COc1ccc(CCNC(=O)CC2Sc3ccc(C(F)(F)F)cc3NC2=O)cc1OC` (centres unmarked) [CBK265341], the “% of control remaining” value was 86.3989.
With `CCc1ccc(-c2cnccc2-n2ccnc2)cc1` [CBK177151] the “% of control remaining” value was 57.5674.
`O=S(=O)(c1ccc(NC(=S)NCc2cccnc2)cc1)N1CCOCC1` [CBK268396] was tested, and the “% of control remaining” value was 84.0127.
`CC(=O)N(C)c1nc(-c2cccc(N(C)C)c2)ccc1C(=O)NCCc1ccc(S(N)(=O)=O)cc1` [CBK076578] was tested, and the “% of control remaining” value was 88.7689.
In the case of `CN(C)CCNc1ncnc2sc3c(c12)CCC3` [CBK265347], the “% of control remaining” value is reported as 98.5514.
`O=C(C1=C(O)C(=O)N(CCCn2ccnc2)C1c1cccs1)c1ccc2c(c1)OCCO2` (centres unmarked) [CBK266170] was tested, and the “% of control remaining” value was 110.096.
In the case of `CSc1ccc(NS(=O)(=O)c2ccc(NC(C)=O)c(Cl)c2)cc1` [CBK043566], the “% of control remaining” value is reported as 66.2398.
For `COc1ccc(CC(=O)N2CCC[C@@H](N)[C@@H]2c2ccccc2F)cc1` [CBK283456], the “% of control remaining” value was 75.4046.
For `COc1ccc(C(NC(=O)c2cccc(OC)c2)c2cc(Cl)c3cccnc3c2O)cc1` (centres unmarked) [CBK264027], the “% of control remaining” value was 108.038.
`COCC(=O)N1CC[C@H](c2nnc(-c3ccncc3)o2)C1` [CBK289413] was tested, and the “% of control remaining” value was 89.0879.
`Cc1nc2c(c(C)c1CC(=O)NCc1cccc(C#N)c1)c(=O)[nH]n2C` [CBK304959] was tested, and the “% of control remaining” value was 48.9208.
For `CC(C)C[C@H](NC(=O)OC(C)(C)C)C(=O)N1CCC(C(=O)O)CC1` [CBK286742], the “% of control remaining” value was 59.2626.
`COc1ccc(C(=O)CCC(=O)Nc2cccnc2)c(OC)c1` [CBK266923] was tested, and the “% of control remaining” value was 88.9359.
`O=[N+]([O-])c1ccccc1N/N=C/c1c[nH]c2ccccc12` [CBK261679] was tested, and the “% of control remaining” value was 106.8.
For `O=C(Nc1ccccc1N1CCCNCC1)c1ccnc2ccccc12` [CBK036325T], the “% of control remaining” value was 89.7494.
`CSc1nsc(SCC(=O)N(c2ccccc2)c2ccccc2)n1` [CBK269361] was tested, and the “% of control remaining” value was 112.563.
With `CS(=O)(=O)N(CC(=O)N1CCN(Cc2ccc3c(c2)OCO3)CC1)c1cccc(F)c1` [CBK074572] the “% of control remaining” value was 82.6342.
`COc1cc(OC)cc(C(=O)Nc2ncccc2OCCCC#N)c1` [CBK304899] was tested, and the “% of control remaining” value was 34.0567.
For `COc1ccc2oc(-c3ccc(NC(=O)c4cccc5ccccc45)cc3)nc2c1` [CBK267610], the “% of control remaining” value was 96.1077.
For `O=C(O)c1ccc(NC(=O)c2cc(-n3cnnc3)ccc2Cl)cc1` [CBK286613], the “% of control remaining” value was 69.3923.
`CC1Cc2ccccc2N1C(=O)Cn1c(=O)n(C)c2ncccc21` (centres unmarked) [CBK283793] was tested, and the “% of control remaining” value was 101.29.
With `Cc1ccc(C2NS(=O)(=O)NC2=N)cc1` (centres unmarked) [CBK263848] the “% of control remaining” value was 87.0137.
In the case of `COc1cc(-c2nnc(NC(=O)c3ccc(C)cc3)o2)cc(OC)c1OC` [CBK287699], the “% of control remaining” value is reported as 83.1042.
In the case of `O=c1[nH]cc(S(=O)(=O)N2CCN(Cc3ccccc3Cl)CC2)c(=O)[nH]1` [CBK285889], the “% of control remaining” value is reported as 113.932.
For `O=C(COc1cccc2ccccc12)Nc1cccnc1` [CBK263015], the “% of control remaining” value was 91.358.
For `O=C(CSCc1ccc(Cl)cc1)Nc1ccc(S(=O)(=O)N2CCCCCC2)cc1` [CBK267017], the “% of control remaining” value was 44.8319.
